According to PubChem BioAssay AID1631 (National Center for Advancing Translational Sciences (NCATS), 2009):
The campaign covered roughly 260,000 compounds. About 890 (0.34%) were called active. The inconclusive results got no clear call from the source; some entries with a clear call stand among them for comparison. Calls follow the shape of the dose curve; as a rule, active = well fitted activation curve with a large enough effect; inconclusive = small, poorly fitted or top-dose-only effect; inactive = no such curve, though single readings can be large or run the other way. No potency is given beside an inconclusive call; the fits are too rough.
% is scaled to controls: 0 for no effect and ±100 for the full control effect; potency is read from the fitted curve at half-maximal effect; tags tell the direction and shape of the fitted curve.
Also: nearly all actives have a fitted effect of over 55% in size.

Each compound was assayed against Pyruvate kinase PKM (Homo sapiens) (UniProt P14618) (assay: qHTS Assay for Activators of Human Muscle isoform 2 Pyruvate Kinase). Conditions: purified PKM2, Kinase-Glo ATP luminescence; Potency: activation; activation: at 57.5 µM (top of the series), 0% is enzyme alone, no compound.
UniProt P14618, sequence (P14618 whole entry, looked up, canonical isoform): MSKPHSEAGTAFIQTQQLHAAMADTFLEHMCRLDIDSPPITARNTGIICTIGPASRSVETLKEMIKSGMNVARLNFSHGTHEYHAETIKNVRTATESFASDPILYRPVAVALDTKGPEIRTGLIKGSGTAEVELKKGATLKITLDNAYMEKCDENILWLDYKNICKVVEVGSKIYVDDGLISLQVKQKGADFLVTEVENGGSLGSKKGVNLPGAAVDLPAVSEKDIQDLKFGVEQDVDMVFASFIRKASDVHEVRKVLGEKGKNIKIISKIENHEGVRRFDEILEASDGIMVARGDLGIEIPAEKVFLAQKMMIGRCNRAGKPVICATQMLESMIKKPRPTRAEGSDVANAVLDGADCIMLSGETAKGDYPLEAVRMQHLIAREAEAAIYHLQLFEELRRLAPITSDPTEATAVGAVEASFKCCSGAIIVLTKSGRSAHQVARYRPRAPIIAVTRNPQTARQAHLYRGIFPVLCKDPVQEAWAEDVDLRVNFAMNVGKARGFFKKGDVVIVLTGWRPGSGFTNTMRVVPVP
Summary of the method: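 ATP formation by purified human PK-M2, quantified via coupled luciferase luminescence after 1 h at room temperature with 0.1 mM ADP and 0.5 mM PEP final.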
`COc1ccc(NC(=O)/C(Cl)=C(/Cl)S(=O)Cc2ccccc2Cl)cn1` (stereo not drawn) was tested, and the Potency was inconclusive [rising, partial curve]. `O=C(NCCCN1CCN(Cc2ccccc2Cl)CC1)Nc1ccccc1` was tested, and the Potency was inconclusive [rising, single point]. `COc1cccc(CC(=O)NCC2COc3ccccc3O2)c1OC` (stereo not drawn) was tested, and the Potency was inconclusive [rising, partial curve, poor fit]. With `O=C(NNc1ccccc1Br)C(O)(c1cccc(C(F)(F)F)c1)c1cccc(C(F)(F)F)c1` the “activation” value was inactive: 8.65%. `CC(C)(CNC(=O)c1ccc(S(=O)(=O)N2CCCC2)cc1)N1CCOCC1` was tested, and the Potency was inconclusive [rising, single point]. In the case of `Cc1c(NS(=O)(=O)c2ccc3nc(COc4ccccc4Cl)[nH]c3c2)c(=O)n(-c2ccccc2)n1C`, the Potency is reported as inconclusive [rising, single point]. For `O=C(Cc1ccc([N+](=O)[O-])cc1)c1c(O)cc(O)cc1O`, the Potency was inconclusive [rising, single point]. With `COc1cccc(C(=O)C(C#N)=C(SC)SC)c1` the Potency was inconclusive [rising, single point]. `COC(=O)c1nc(N)sc1-c1ccc(Cl)c(Cl)c1` was tested, and the Potency was inconclusive [rising, single point]. In the case of `CCN1CCc2c(sc(NC(=O)Cc3ccccc3)c2C(N)=O)C1`, the “activation” value is reported as inactive: -6.53%. In the case of `COc1ccc(CNC(=O)C2CCN(S(=O)(=O)c3ccc(Br)s3)CC2)cc1`, the Potency is reported as inconclusive [rising, partial curve]. In the case of `Cc1ccc(NC(=O)CSc2nccn2Cc2ccco2)cc1`, the “activation” value is reported as inactive: 11.8%. For `CCOC(=O)N1CCN(C(=O)c2ccc(S(=O)(=O)NCc3ccco3)cc2)CC1`, the Potency was inconclusive [rising, single point]. `Cc1ccc(-c2cc(-c3ccc(C)o3)nc(N)c2C#N)cc1` was tested, and the Potency was inconclusive [rising, partial curve]. With `COc1ccc(NC(=S)N2CCc3ccccc32)cc1OC` the “activation” value was inactive: 0.148%. For `Cc1cccn2c(=O)c(/C=C3\SC(=S)NC3=O)c(NCCCN3CCOCC3)nc12`, the Potency was inconclusive [rising, full curve, poor fit]. With `Cc1ccc(-n2cccc2/C=N/n2cnnc2)cc1Cl` the Potency was inconclusive [rising, single point]. `CC(=O)N1N=C(c2ccc(C)o2)CC1c1cccc(F)c1` (stereo not drawn) was tested, and the Potency was inconclusive [rising, single point]. With `COc1ccc(OC)c(CCNC(=O)CS(=O)(=O)Cc2nc(-c3ccccc3Cl)oc2C)c1` the “activation” value was inactive: -0.274%. For `Cc1cc(C)n(-c2nc3nonc3nc2-n2nc(C)cc2C)n1`, the “activation” value was inactive: 1.57%. With `Cc1noc(C)c1S(=O)(=O)N1CCc2nc(-c3ccccc3)c3c(c2C1)CO[C@@H](C)C3` the activation was inactive: -12.8% [at 11.5 µM, 0% is enzyme alone, no compound]. With `O=C(Cn1c2c(c(=O)n3ncnc13)CCC2)N/N=C/c1cccs1` the Potency was inconclusive [rising, single point]. In the case of `O=C(CSc1ncn[nH]1)Nc1ccc([N+](=O)[O-])cc1Br`, the Potency is reported as active: 7.08 µM. With `CCN1CCCC1CNC(=O)Cn1ncc2c(=O)oc3ccc(C)cc3c21` (stereo not drawn) the Potency was inconclusive [rising, full curve]. In the case of `Cn1c(=O)n(CCOc2ccc([N+](=O)[O-])cc2)c2ccccc21`, the Potency is reported as inconclusive [rising, partial curve, poor fit]. For `COc1ccccc1-c1c(C#N)c(N)nc2c1CCc1ccccc1-2`, the “activation” value was inactive: -9.7%. With `O=C(N/N=C/c1cc(Br)cc(Br)c1O)c1ccncc1` the Potency was inconclusive [rising, single point]. `Cc1ccccc1/C=C\c1nc2ccccc2c(=O)n1Cc1ccccc1` was tested, and the “activation” value was inactive: -22.7%. With `COc1ccc2c(c1)CC/C(=C/c1ccco1)C2=O` the “activation” value was inactive: -24.1%. With `CCCCn1c(=O)[nH]c2nc3cc(NC(C)=O)ccc3nc2c1=O` the “activation” value was inactive: -10.2%. With `COc1ccccc1NC(CC(=O)c1ccccc1)C(=O)OCC(=O)c1ccc(F)cc1` (stereo not drawn) the Potency was inconclusive [rising, partial curve]. In the case of `C=CCNc1nc(=S)[nH]c2cc(OC)c(OC)cc12`, the “activation” value is reported as inactive: -1.4%. In the case of `Cc1cccc2nc(CSC(=N)N)c(Br)n12`, the Potency is reported as inconclusive [rising, partial curve]. `Cc1cc(C)c2c(=O)n(CC(=O)N3CCC(Cc4ccccc4)CC3)sc2n1` was tested, and the Potency was active: 1.58 µM. In the case of `CCOc1ccccc1-n1c(CN2CCN(C(=O)c3ccco3)CC2)nc2ccccc2c1=O`, the Potency is reported as inconclusive [rising, single point]. For `CCn1cc(CN2CCc3c([nH]c4ccccc34)C2c2cccc(O)c2)c(C)n1` (stereo not drawn), the Potency was inconclusive [rising, single point]. In the case of `CC(=O)c1c(C)[nH]c(C(=O)Nc2cc(F)ccc2C)c1C`, the Potency is reported as inconclusive [rising, partial curve]. `CCOc1ccccc1N1CC(C(=O)N2CCc3ccccc3C2)CC1=O` (stereo not drawn) was tested, and the “activation” value was inactive: -5.73%. `COC(=O)N1CCN(S(=O)(=O)c2ccc(F)cc2)CC1` was tested, and the Potency was inconclusive [rising, full curve, poor fit]. For `Cc1ccc(-n2c(C)cc(/C=C3\NC(=O)NC3=O)c2C)c(C)c1`, the “activation” value was inactive: 5.59%. `C/C=C/C=C\C(=O)Nc1cccc(C2=NOC3(C2)C[C@H](C(N)=O)N(C(=O)CC#N)C3)c1` (stereo partly drawn) was tested, and the Potency was active: 20 µM. In the case of `Cc1oc(C)c2c(=O)ccc3c(c12)OC(N)=C(C#N)C3c1ccc(F)cc1` (stereo not drawn), the Potency is reported as inconclusive [rising, partial curve]. With `O=C(Nc1ccc(-c2csc(Nc3cccc(C(F)(F)F)c3)n2)cc1)c1cc([N+](=O)[O-])cc(C(F)(F)F)c1` the “activation” value was inactive: -0.599%. In the case of `COc1cccc(NC(=O)CSc2nnc(C)s2)c1`, the Potency is reported as inconclusive [rising, partial curve]. `COc1ccc2[nH]c3c(=O)n(Cc4ccc(C(=O)N5CCC(C(N)=O)CC5)cc4)c(=S)[nH]c3c2c1` was tested, and the “activation” value was inactive: -30%. `CSCCCNC(=S)N1CCN(S(=O)(=O)c2cccc(C(F)(F)F)c2)CC1` was tested, and the Potency was inconclusive [rising, partial curve]. In the case of `COc1cc(/C=C2/SC(=S)N(CC(=O)O)C2=O)ccc1OC(=O)c1ccco1`, the “activation” value is reported as inactive: -7.91%. With `CC(C)CCNc1nc(-c2ccco2)c2c(c1C#N)CCCC2` the “activation” value was inactive: -0.477%. For `CC(=O)NCCc1nc2cc(NS(=O)(=O)c3ccc(Cl)cc3)ccc2n1C`, the “activation” value was inactive: -0.864%. For `O=C1c2oc3ccc(Cl)cc3c(=O)c2C(c2cccc(Br)c2)N1CCO` (stereo not drawn), the Potency was inconclusive [rising, single point]. With `O=C(Nc1cccc(S(=O)(=O)N2CCCCC2)c1)c1cnccn1` the Potency was inconclusive [rising, single point]. For `Cc1cc(/C=C2\NC(=O)NC2=O)c(C)n1-c1cccnc1`, the Potency was inconclusive [rising, single point]. `Cc1cc(C)nc(N2CCN(S(=O)(=O)c3ccc(F)cc3)CC2)n1` was tested, and the Potency was inconclusive [rising, partial curve]. With `O=C(COc1ccc(Cl)cc1Cl)NC(=S)Nc1ccc(CN2CCOCC2)cc1` the Potency was inconclusive [rising, single point]. `CN(C)c1nc(N)nc(CSc2nnnn2-c2ccccc2)n1` was tested, and the Potency was inconclusive [rising, partial curve]. With `COc1ccc(C)cc1NC(=O)c1c([N+](=O)[O-])cnn1C` the Potency was inconclusive [rising, single point]. With `COc1ccc(-c2nc3cnccn3c2Nc2ccc3c(c2)OCO3)cc1` the “activation” value was inactive: 8.99%. `CCOC(=O)c1cnc(SCC(=O)Nc2nnc(CC)s2)nc1N` was tested, and the Potency was inconclusive [rising, full curve]. With `CS(=O)(=O)Nc1ccc(C2=NN(C(=O)c3ccco3)C(c3ccco3)C2)cc1` (stereo not drawn) the Potency was inconclusive [rising, partial curve]. For `N#Cc1c2c(c(=S)n(-c3ccccc3)c1N)CCCC2`, the “activation” value was inactive: 3.37%. `c1ccc2c(c1)ncn2Cc1nnc2sc(-c3ccncc3)nn12` was tested, and the Potency was active: 8.91 µM. For `Cc1ccc(Cn2ncc3c(N4CCCC4)ncnc32)cc1`, the Potency was active: 12.6 µM. For `NS(=O)(=O)c1ccc(NC(=O)CSc2nc3ccccc3[nH]2)cc1`, the Potency was inconclusive [rising, single point]. In the case of `Cc1cc(C)c(C)c(S(=O)(=O)NCC(=O)Nc2ccc(F)cc2)c1C`, the “activation” value is reported as inactive: -3.2%. With `O=C(COc1ccc(Cl)cc1Cl)Nc1ccc(Cl)cn1` the Potency was inconclusive [rising, partial curve, poor fit]. In the case of `O=C1CC(c2ccco2)CC(O)=C1C=Nc1ccccc1-c1ccccc1` (stereo not drawn), the Potency is reported as inconclusive [rising, single point]. For `Cc1ccc(S(=O)(=O)Nc2ccccc2CNC2CCCCC2)cc1`, the Potency was inconclusive [rising, single point]. With `O=C(Nc1ccc(NC(=O)c2cccs2)cc1)c1cccs1` the “activation” value was inactive: -3.36%. In the case of `O=C1C2C3C=CC(C3=C3CCCCC3)C2C(=O)N1c1ccccc1` (stereo not drawn), the “activation” value is reported as inactive: 8.76%. `COc1ccccc1N1CCN(C(=O)c2ccc(NS(=O)(=O)c3ccc(C)cc3)cc2)CC1` was tested, and the Potency was active: 8.91 µM. In the case of `CC(=O)Oc1ccc(N(C(C)=O)S(=O)(=O)c2cccs2)c2ccccc12`, the Potency is reported as inconclusive [rising, partial curve]. For `CCC(C(=O)NC1CCCC1)N(C(=O)Cn1nnc(-c2ccc(C)o2)n1)c1cnc2ccccc2c1` (stereo not drawn), the Potency was inconclusive [rising, partial curve]. With `COc1ccccc1Cn1c(=O)c2ccccc2n2c(Sc3ncnc4sccc34)nnc12` the “activation” value was inactive: -0.677%.
